This is one part of the list.
Each compound was assayed on HSkMC (human skeletal muscle cells) (assay: cytotoxicity call (relative viability < 0.9)). Conditions: 10 µM.
In the case of `C[C@@H]1CCCCO[C@H](CN(C)S(=O)(=O)c2ccc(F)cc2)[C@H](C)CN([C@@H](C)CO)C(=O)c2cc(NC(=O)c3ccccc3)ccc2O1`, the cytotoxicity call is reported as “inactive”.
With `CC(=O)NCCCC[C@@H]1NC(=O)[C@H]2C[C@@H](C(=O)O)[C@@H](c3ccc(O)cc3)N2C1=O` the cytotoxicity call was “inactive”.
`O=C(C[C@H]1CC[C@@H]2[C@H](COC[C@@H](O)CN2C(=O)c2cccnc2)O1)NCc1ccc(-c2ccccc2)cc1` was tested, and the cytotoxicity call was “inactive”.
`COc1ccccc1CNC(=O)C[C@@H]1C[C@H]2c3cc(NC(=O)c4ccc5c(c4)OCO5)ccc3O[C@H]2[C@@H](CO)O1` was tested, and the cytotoxicity call was “inactive”.
For `C[C@@H]1CN([C@H](C)CO)C(=O)c2cccc(NC(=O)CCCCCC(=O)Nc3ccccc3N)c2O[C@@H]1CN(C)C(=O)Nc1ccccc1`, the cytotoxicity call was “inactive”.

Each compound was assayed on HepG2 (assay: cytotoxicity call (relative viability < 0.9)). Conditions: 10 µM.
For `Cc1ccc(S(=O)(=O)Nc2cccc3c2O[C@@H](CN(C)S(=O)(=O)c2cccs2)[C@@H](C)CN([C@H](C)CO)C3=O)cc1`, the cytotoxicity call was “inactive”.
In the case of `C[C@@H]1CN([C@H](C)CO)C(=O)c2cccc(NC(=O)Nc3cccc4ccccc34)c2O[C@H]1CN(C)S(=O)(=O)c1cccs1`, the cytotoxicity call is reported as “inactive”.
With `Cc1noc(C)c1NC(=O)Nc1cccc2c1O[C@H](CN(C)S(C)(=O)=O)[C@H](C)CN([C@H](C)CO)C2=O` the cytotoxicity call was “inactive”.
For `C[C@@H]1CN([C@H](C)CO)C(=O)c2cc(NC(=O)C3CCCCC3)ccc2O[C@@H]1CN(C)Cc1ccc(C(F)(F)F)cc1`, the cytotoxicity call was “inactive”.
With `C[C@@H]1CCCCO[C@H](CN(C)Cc2ccc(Cl)c(Cl)c2)[C@H](C)CN([C@@H](C)CO)C(=O)c2cc(NC(=O)Cc3ccccc3)ccc2O1` the cytotoxicity call was “inactive”.
With `Cc1noc(C)c1NC(=O)N(C)C[C@H]1Oc2ccc(NS(=O)(=O)c3cn(C)cn3)cc2C(=O)N([C@H](C)CO)C[C@@H]1C` the cytotoxicity call was “inactive”.
With `C[C@@H]1CN([C@H](C)CO)C(=O)c2cc(NC(=O)c3ccncc3)ccc2O[C@H]1CN(C)Cc1ccncc1` the cytotoxicity call was “inactive”.
For `COc1ccc(CN(C)C[C@H]2OCCCC[C@@H](C)Oc3ccc(NC(=O)Nc4ccc(F)cc4)cc3C(=O)N([C@@H](C)CO)C[C@@H]2C)cc1`, the cytotoxicity call was “active”.
For `COCC#Cc1cnc2c(c1)C(=O)N([C@@H](C)CO)C[C@H](C)[C@@H](CN(C)C(=O)CN1CCOCC1)O2`, the cytotoxicity call was “inactive”.
`C#CCN1C(=O)C[C@H](O)C1=O` was tested, and the cytotoxicity call was “inactive”.
`C[C@@H]1CN([C@@H](C)CO)C(=O)c2cc(NC(=O)CCCN(C)C)ccc2O[C@H]1CN(C)Cc1ccc(C(=O)O)cc1` was tested, and the cytotoxicity call was “inactive”.
`C[C@H](CO)N1C[C@H](C)[C@@H](CN(C)C(=O)Nc2ccccc2)Oc2ccc(NS(=O)(=O)c3cn(C)cn3)cc2CC1=O` was tested, and the cytotoxicity call was “inactive”.
`O=C1NC(=O)[C@H]2CC[C@H]2N1` was tested, and the cytotoxicity call was “inactive”.
`C[C@@H](N)CCP(=O)(O)O` was tested, and the cytotoxicity call was “inactive”.
For `C(=C\c1ccncc1)/c1ccncc1`, the cytotoxicity call was “inactive”.
In the case of `C[C@H](CO)N1C[C@H](C)[C@@H](CN(C)C(=O)Cc2ccccn2)Oc2cc(C#Cc3ccccc3)ccc2S1(=O)=O`, the cytotoxicity call is reported as “inactive”.
`COc1ccc(CN(C)C[C@H]2OCCCC[C@H](C)Oc3ccc(NC(=O)CCC(F)(F)F)cc3C(=O)N([C@H](C)CO)C[C@H]2C)cc1` was tested, and the cytotoxicity call was “active”.
`C[C@@H]1CN([C@H](C)CO)C(=O)Cc2cc(NS(C)(=O)=O)ccc2O[C@@H]1CN(C)S(=O)(=O)c1ccc(F)cc1` was tested, and the cytotoxicity call was “inactive”.
In the case of `C[C@H]1CN([C@@H](C)CO)C(=O)Cc2cc(NC(=O)Nc3ccc(F)cc3)ccc2O[C@H]1CN(C)S(=O)(=O)c1ccc(Oc2ccccc2)cc1`, the cytotoxicity call is reported as “active”.
With `C[C@H](CO)N1C[C@H](C)[C@H](CN(C)S(=O)(=O)c2cccs2)Oc2ccc(NC(=O)Cc3ccccc3)cc2CC1=O` the cytotoxicity call was “inactive”.
`CCn1nc(C)cc1C(=O)NN` was tested, and the cytotoxicity call was “inactive”.
`COc1ccc(CN(C)C[C@@H]2Oc3ccc(NS(=O)(=O)c4cn(C)cn4)cc3CC(=O)N([C@@H](C)CO)C[C@H]2C)cc1` was tested, and the cytotoxicity call was “inactive”.
In the case of `NCc1cccc(-c2ccccc2)c1`, the cytotoxicity call is reported as “inactive”.
In the case of `Cc1ccc(S(=O)(=O)Nc2ccc3c(c2)C(=O)N([C@@H](C)CO)C[C@H](C)[C@@H](CN(C)C(=O)C2CCCCC2)OCCCC[C@@H](C)O3)cc1`, the cytotoxicity call is reported as “active”.
In the case of `N[C@@H]1CONC1=O`, the cytotoxicity call is reported as “inactive”.
With `NCC[C@H]1CC[C@@H](NC(=O)NC2CCCCC2)[C@@H](CO)O1` the cytotoxicity call was “inactive”.
`CCCC(=O)Nc1ccc2c(c1)C(=O)N(C)C[C@H](OC)[C@H](C)CN(S(=O)(=O)c1cn(C)cn1)[C@@H](C)CO2` was tested, and the cytotoxicity call was “inactive”.
In the case of `COCC(=O)N(C)C[C@H]1Oc2cc(-c3ccc(OC)cc3)ccc2S(=O)(=O)N([C@@H](C)CO)C[C@H]1C`, the cytotoxicity call is reported as “inactive”.
With `O=C(C[C@@H]1CC[C@H](NS(=O)(=O)c2ccc(F)cc2)[C@@H](CO)O1)N1CCC(Cc2ccccc2)CC1` the cytotoxicity call was “inactive”.
`C[C@H](CO)N1C[C@H](C)[C@@H](CN(C)Cc2ccncc2)Oc2c(NC(=O)c3cnccn3)cccc2C1=O` was tested, and the cytotoxicity call was “inactive”.
`C[C@H](CO)N1C[C@H](C)[C@@H](CN(C)C(=O)NC2CCCCC2)OCCCC[C@H](C)Oc2ccc(NS(=O)(=O)c3ccc(Cl)cc3)cc2C1=O` was tested, and the cytotoxicity call was “inactive”.
With `Cc1ccc2ncccc2c1` the cytotoxicity call was “inactive”.
`C[C@H](CO)N1C[C@H](C)[C@@H](CN(C)Cc2ccc3c(c2)OCO3)Oc2ccc(NC(=O)Cn3cnnn3)cc2C1=O` was tested, and the cytotoxicity call was “inactive”.
For `CN(C)c1ccc([C@@H](CN)N2CCc3ccccc3C2)cc1`, the cytotoxicity call was “inactive”.
`C[C@@H]1CCCCO[C@H](CN(C)S(=O)(=O)c2ccc(F)cc2)[C@H](C)CN([C@@H](C)CO)C(=O)c2cc(NC(=O)c3ccccc3)ccc2O1` was tested, and the cytotoxicity call was “inactive”.
In the case of `CC(=O)NCCCC[C@@H]1NC(=O)[C@H]2C[C@@H](C(=O)O)[C@@H](c3ccc(O)cc3)N2C1=O`, the cytotoxicity call is reported as “inactive”.
`O=C(C[C@H]1CC[C@@H]2[C@H](COC[C@@H](O)CN2C(=O)c2cccnc2)O1)NCc1ccc(-c2ccccc2)cc1` was tested, and the cytotoxicity call was “inactive”.
For `COc1ccccc1CNC(=O)C[C@@H]1C[C@H]2c3cc(NC(=O)c4ccc5c(c4)OCO5)ccc3O[C@H]2[C@@H](CO)O1`, the cytotoxicity call was “inactive”.
For `C[C@@H]1CN([C@H](C)CO)C(=O)c2cccc(NC(=O)CCCCCC(=O)Nc3ccccc3N)c2O[C@@H]1CN(C)C(=O)Nc1ccccc1`, the cytotoxicity call was “inactive”.

— the antibiotic and cytotoxicity screens of Wong et al. (2023)
